Some of the results follow. At the low end of the ranking, values are background and their order means little.

The target of this experiment is SIX1-Q177R homeodomain (UniProt Q15475). Description: universal protein binding microarray. The settings on record: Universal all-10-mer PBM (8x60K, AMADID 030236), 300 nM GST-tagged protein, Alexa Fluor 488 anti-GST; buffer, salt, pH and temperature not stated; high values mean tight binding; most listed sequences are background and not binding sites; double strand, one strand shown.
As to GTGTAGGA, the binding signal was 0.4 E-score.

As to AGACCGCA, the binding signal was -0.217 E-score.

As for GCGAAAGC, the binding signal was -0.161 E-score.

Turning to AATTCGCA, the binding signal was -0.0928 E-score.

Turning to GTATGGAA, the binding signal is -0.232 E-score.

For the sequence CATATACC, the binding signal amounted to 0.138 E-score.

On to AAGTGCAA, for which the binding signal is -0.171 E-score.

For ACGTAGAT, the binding signal was -0.286 E-score.

For the sequence GTACGTTA, the binding signal is -0.0065 E-score.

GAATGTTA: the binding signal was -0.169 E-score.

CATCCAGA: the binding signal is 0.131 E-score.

Turning to CGTCAGAG, the binding signal came to 0.058 E-score.

Take CGAACCTC: the binding signal was found to be 0.0976 E-score.

AGGTCAAC: the binding signal was -0.242 E-score.

For AAGACGCT, the binding signal is -0.163 E-score.

For TGAACGAA, the binding signal is -0.233 E-score.

Turning to AGCAGGCT, the binding signal was -0.121 E-score.

Regarding ATTCTACA, the binding signal is 0.181 E-score.

As to ATGACTTA, the binding signal was -0.365 E-score.

As to ATGGAAGG, the binding signal is -0.102 E-score.

As for GATCGTAA, the binding signal is -0.121 E-score.

In the case of ATAGACCG, the binding signal was -0.0648 E-score.

Regarding AGCGGCAG, the binding signal was -0.282 E-score.

Take ATTCACCA: the binding signal was -0.273 E-score.

As to CTACGGAG, the binding signal was -0.184 E-score.

As for CGCAGATC, the binding signal was 0.0189 E-score.

For the sequence ATGTTAAC, the binding signal turned out to be 0.00543 E-score.

For the sequence GCGTCTAA, the binding signal was -0.11 E-score.

With ATGAGTTA, the binding signal is -0.225 E-score.

Turning to AAACTTGT, the binding signal is -0.277 E-score.

As to ATAGGTTC, the binding signal is -0.104 E-score.

Regarding CACCGGAA, the binding signal amounted to 0.288 E-score.

For CACTAAGA, the binding signal turned out to be 0.17 E-score.

Consider AGGCCATA, for which the binding signal is -0.00853 E-score.

In the case of GCGGAGCC, the binding signal is -0.145 E-score.

ACCTCCAA: the binding signal was -0.0469 E-score.

ACCCCATC: the binding signal turned out to be 0.245 E-score.

On to CTGTCGTA, for which the binding signal is -0.137 E-score.

For CACGGTAC, the binding signal was 0.186 E-score.

GCGATCGA: the binding signal was -0.063 E-score.

Regarding ATAAGAAG, the binding signal was -0.156 E-score.

Turning to GTAAAGGA, the binding signal was -0.0804 E-score.

In the case of GACACGCC, the binding signal worked out at 0.444 E-score.

Turning to GAGGTAGA, the binding signal is -0.0516 E-score.

As to ATACAATA, the binding signal is -0.0298 E-score.

Regarding AAAGATCG, the binding signal is -0.119 E-score.

For CCGTGGTC, the binding signal is -0.172 E-score.

Take ATCCCGAG: the binding signal worked out at 0.0949 E-score.

For the sequence ATACCACG, the binding signal stood at 0.216 E-score.

Consider AGGCCTAG, for which the binding signal is -0.173 E-score.

With AGCTTAAG, the binding signal was -0.0738 E-score.

Consider CACTGTGA, for which the binding signal stood at 0.177 E-score.

As for AAGTGGCA, the binding signal turned out to be 0.00348 E-score.

Regarding GGGAGCCC, the binding signal is -0.133 E-score.

As for AAAAAGCG, the binding signal is -0.0947 E-score.

In the case of ACACTTTC, the binding signal came to 0.354 E-score.

As to AATCCAGT, the binding signal is -0.185 E-score.

Consider ACATGTCG, for which the binding signal was -0.0917 E-score.

Turning to ACCAAAAG, the binding signal is -0.146 E-score.

Regarding ATGTTCGA, the binding signal was -0.0912 E-score.

With ACGGGAGC, the binding signal was -0.0173 E-score.

On to AAGTAGTG, for which the binding signal turned out to be 0.27 E-score.

As for CGGGGCAC, the binding signal stood at 0.145 E-score.

As for CAACTTGC, the binding signal is -0.113 E-score.

In the case of GAAGTAGA, the binding signal is -0.0925 E-score.

As to CTAGTCGC, the binding signal came out at 0.0377 E-score.

In the case of GAGCAACA, the binding signal is -0.0136 E-score.

With GGCCTATA, the binding signal is -0.0243 E-score.

In the case of ACTTCCAC, the binding signal came out at 0.0553 E-score.

On to GCGAGACC, for which the binding signal is -0.181 E-score.

Turning to CCGTGTGA, the binding signal amounted to 0.299 E-score.

Consider GGAGGGCA, for which the binding signal is -0.00359 E-score.

As to GAGCTTCA, the binding signal was -0.192 E-score.

In the case of CAGCGAAG, the binding signal was -0.132 E-score.

For the sequence CGCCCACC, the binding signal is 0.0748 E-score.

Take CAACCTCG: the binding signal was -0.0524 E-score.

Consider CCACGAAG, for which the binding signal is 0.0936 E-score.

For CATGTCTA, the binding signal is -0.0915 E-score.

As for AGGATACG, the binding signal was 0.108 E-score.

ACTGCACT: the binding signal is -0.0731 E-score.

With CTTTTGGA, the binding signal was -0.116 E-score.

With GATGCATA, the binding signal was -0.137 E-score.

Turning to AGTACACT, the binding signal came out at 0.406 E-score.

Take GTTGAGCA: the binding signal is -0.0993 E-score.

As for CGAGAGAC, the binding signal is -0.0128 E-score.

Consider CGCAGCTA, for which the binding signal was -0.292 E-score.

For the sequence AGTTCTCA, the binding signal was -0.252 E-score.

Consider CAATGCAA, for which the binding signal is -0.0317 E-score.

For the sequence CTCCTTTC, the binding signal worked out at 0.12 E-score.

Turning to AACGATTA, the binding signal was -0.0282 E-score.

Regarding ACCAACAT, the binding signal is -0.0965 E-score.

Take AGCTTACA: the binding signal is 0.139 E-score.

For CCCCAAAA, the binding signal amounted to 0.0915 E-score.

In the case of CCCTATCG, the binding signal is -0.0506 E-score.

For ATACCCTC, the binding signal was 0.234 E-score.

With AACGCAGG, the binding signal is -0.165 E-score.

In the case of CGCGCCAC, the binding signal is -0.13 E-score.

Consider ACTAACGA, for which the binding signal was -0.039 E-score.

As for AGAGCAGG, the binding signal is -0.031 E-score.

For CCCGAAAA, the binding signal is 0.103 E-score.

For AGCCCCAA, the binding signal is -0.197 E-score.

In the case of CGGCAGCC, the binding signal was 0.00382 E-score.

For the sequence CGAGCAAA, the binding signal is -0.292 E-score.

Regarding GGCAGCAA, the binding signal is -0.243 E-score.

For the sequence GTATAAGA, the binding signal is 0.0387 E-score.

As to TACAAGAA, the binding signal is -0.273 E-score.

In the case of GGGCACCA, the binding signal was 0.0836 E-score.

ATGATCCC: the binding signal stood at 0.251 E-score.

For AAGATAGC, the binding signal was -0.283 E-score.

Consider CTACGCCA, for which the binding signal worked out at 0.0179 E-score.

On to ATATGACG, for which the binding signal was -0.16 E-score.

Regarding GAACAATA, the binding signal is -0.0552 E-score.

Take ACACAAGG: the binding signal came to 0.155 E-score.

Turning to ACGATCAG, the binding signal is 0.00326 E-score.

TATATCCA: the binding signal is -0.107 E-score.

GTAGTAAC: the binding signal was -0.0446 E-score.

Take AAGCACTG: the binding signal is -0.0761 E-score.

Regarding CCCATTCG, the binding signal was -0.107 E-score.

Turning to CATGGCGA, the binding signal is -0.16 E-score.

Consider ACCTACGC, for which the binding signal was 0.08 E-score.

As to GCTACGTA, the binding signal is 0.0284 E-score.

On to ATTTAACC, for which the binding signal came out at 0.0565 E-score.

Turning to GTGTCGAA, the binding signal was found to be 0.448 E-score.

Regarding AACGAAAC, the binding signal is -0.0413 E-score.

As for GAATACAA, the binding signal is -0.117 E-score.

Regarding CAGCTATA, the binding signal amounted to 0.0012 E-score.

For the sequence AGCTTTGA, the binding signal was -0.16 E-score.

As for CCCCATTA, the binding signal came out at 0.0622 E-score.

Take TATGCTCA: the binding signal was -0.124 E-score.

In the case of CCCCAGGA, the binding signal stood at 0.173 E-score.

CGGGGTCC: the binding signal was found to be 0.241 E-score.

Take ACTTTCCC: the binding signal was -0.0132 E-score.

As for CTGAACGA, the binding signal was -0.0754 E-score.

ACTGAACG: the binding signal is -0.0395 E-score.

As for CACAGGGC, the binding signal is -0.213 E-score.

Consider TGAGACAA, for which the binding signal is -0.116 E-score.

For the sequence GCAGAAAC, the binding signal is -0.144 E-score.

In the case of ATACGGTC, the binding signal was -0.0513 E-score.

For the sequence CCATGTAC, the binding signal was 0.0995 E-score.

Turning to CCGAAGAG, the binding signal was -0.189 E-score.

ACTGCGTA: the binding signal came out at 0.0362 E-score.

In the case of ACAGGCGT, the binding signal is -0.0638 E-score.

In the case of AACCGGCT, the binding signal came to 0.0327 E-score.

For the sequence AAGAACAA, the binding signal is -0.0767 E-score.

For ATAAATAA, the binding signal was -0.142 E-score.

Turning to AGGAGTAT, the binding signal was found to be 0.168 E-score.

As to AGCAGCAA, the binding signal is -0.198 E-score.

As for CATTGAGG, the binding signal is -0.207 E-score.

Regarding GTACACCA, the binding signal was found to be 0.485 E-score.

As for CCTGCACC, the binding signal was determined as 0.16 E-score.

Regarding ACATTCGA, the binding signal is -0.32 E-score.

In the case of AACTAAAA, the binding signal is -0.0709 E-score.

With ATAAACAC, the binding signal is 0.365 E-score.

In the case of AGCTATAA, the binding signal was -0.082 E-score.

With CCCGACGA, the binding signal came out at 0.0413 E-score.

On to CGACCTCC, for which the binding signal stood at 0.0382 E-score.

For AAAGTCCG, the binding signal is -0.0288 E-score.

In the case of TCAGGCAA, the binding signal is -0.107 E-score.

For the sequence ATTCTTTG, the binding signal was -0.0728 E-score.

Consider TTGCCAAA, for which the binding signal was -0.0705 E-score.

As for ACGAATCC, the binding signal amounted to 0.143 E-score.

On to ACTGTTAT, for which the binding signal is -0.249 E-score.

As for CTAATGCC, the binding signal is -0.142 E-score.

With CAGCCTAC, the binding signal is -0.0633 E-score.

In the case of CCGAACCA, the binding signal was found to be 0.0215 E-score.

Consider AAGTGGGA, for which the binding signal is -0.0859 E-score.

Turning to TAGCAACA, the binding signal is 0.0936 E-score.

For ACCTCCGA, the binding signal is 0.172 E-score.

With CTCGGAAC, the binding signal was -0.00483 E-score.

Turning to CAAATCCA, the binding signal was -0.153 E-score.

For the sequence TAACACAA, the binding signal was determined as 0.216 E-score.

With CTCTTTAC, the binding signal is -0.0821 E-score.

Values taken from paper PMC10668032.
